Laboratory results as given in PubChem BioAssay AID686978 (National Center for Advancing Translational Sciences (NCATS), 2013).
Out of some 420,000 compounds screened, about 64,000 (15%) were called active. Inconclusive results, whose numbers are uncertain, are shown with a selection of clear calls. Calls follow the shape of the dose curve; as a rule, active = well fitted inhibition curve with a large enough effect; inconclusive = small, poorly fitted or top-dose-only effect; inactive = flat fitted curve, though single readings scatter. Potencies of inconclusive entries are left out as doubtful fits.

experiment: qHTS for Inhibitors of human tyrosyl-DNA phosphodiesterase 1 (TDP1): qHTS in cells in absence of CPT; conditions: DT40 Tdp1-/- hTDP1 cells, no CPT, ATP luminescence, 48 h; activity change, negative = growth inhibition: at 46.2 µM (top of the series) unless noted; also: nearly all actives have a fitted effect of over 55% in size
How it was run: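 DT40 Tdp1-/-;hTDP1 cells, no CPT (DMSO vehicle only), 400 cells/well; compounds pin-transferred; ≥48 hr, 37 °C; CellTiter-Glo 30 min RT dark, luminescence read.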
% is scaled to controls: 0 for no effect and ±100 for the full control effect; potency is read from the fitted curve at half-maximal effect; tags tell the direction and shape of the fitted curve.

Compound | Potency | activity change, negative = growth inhibition
COc1ccc(N=C2SC(CC(=O)Nc3ccccc3F)C(=O)N2Cc2ccco2)cc1 (stereo not given) | inconclusive [inhibitor, single point] | –
O=C(O)CSc1c(O)c2ccccc2[nH]c1=O | – | inconclusive: -30.9% [inhibitor]
CCCCOc1ccc(-c2nnn(CC(=O)NCCc3c[nH]c4ccccc34)n2)cc1 | inconclusive [inhibitor, partial curve] | –
CCc1ccc(C2=NN(CCC(=O)NC(C)CCc3ccccc3)C(=O)CC2)cc1 (stereo not given) | inconclusive [inhibitor, partial curve, poor fit] | –
O=C(N/N=C/c1cc(Cl)ccc1O)c1ccc(Br)cc1 | active: 5.8 µM | –
COc1ccccc1Oc1ccc(N/C=C2/CCCC2=O)cc1 | inconclusive [inhibitor, single point] | –
Cc1oc2c(O)c(O)ccc2c(=O)c1-c1ccc(Cl)cc1 | inconclusive [inhibitor, single point] | –
Cc1ccc(S(=O)(=O)N2CCN(C(=O)c3ccccc3)CC2)cc1 | – | inactive: -0.922%
O=C(O)/C=C/c1cn(-c2ccccc2)nc1-c1ccc2c(c1)OCCO2 | inconclusive [inhibitor, single point] | –
COc1ccc(-c2oc(=O)c3cc(OC)c(OC)cc3c2/C=C/c2ccc([N+](=O)[O-])cc2)cc1 | inconclusive [inhibitor, partial curve, poor fit] | –
CCOc1ccc(-c2cn3ccccc3n2)cc1[N+](=O)[O-] | inconclusive [inhibitor, single point] | –
O=C1[C@H](Cc2ccccc2)NC/C=C\C[C@@H](c2ccc(Cl)cc2)N1Cc1ccccc1 | active: 11.2 µM | –
CC(C)c1ccc2c(c1)NC(c1ccncc1)=NC(c1cccs1)=N2 | active: 16.4 µM | –
COc1ccc(-c2cc(OC(=O)c3ccccc3)c3c(C)oc(C)c3c(=O)c2)cc1OC | inconclusive [inhibitor, single point] | –
Cc1ccc(C23CC4CC(CC(C(=O)NCC(=O)O)(C4)C2)C3)cc1 | – | inactive: -8.94%
COc1cc(C(=O)OCC(C)=O)c([N+](=O)[O-])cc1OC | – | inactive: 10.2%
COCCNC(=O)c1c[nH]c2ccc(S(=O)(=O)N3CCOCC3)cc2c1=O | – | inactive: 21.5%
Cc1ccc(NC(=O)c2ccc(OC(=O)COc3ccc(Cl)cc3C)cc2)cc1 | – | inactive: 10.9%
COc1ccc(CCNC(=O)c2nnn(-c3cc(C)cc(C)c3)c2N)cc1OC | inconclusive [inhibitor, single point] | –
CCOc1cc(NC(=S)NCCCN2CCOCC2)c(OCC)cc1NC(=O)c1ccccc1 | inconclusive [inhibitor, single point] | –
